Laboratory results as given in PubChem BioAssay AID1963576 (National Center for Advancing Translational Sciences (NCATS), 2024).
Hit rate of the full screen: of about 46,000 compounds, about 60 (0.1%) were called active. Inconclusive means that the source gave no clear call. Such entries were picked first, then a sample of the others. Calls follow the shape of the dose curve; as a rule, active = well fitted inhibition curve with a large enough effect; inconclusive = small, poorly fitted or top-dose-only effect; inactive = no such curve, though single readings can be large or run the other way. Potencies of inconclusive entries are left out as doubtful fits.

assay: Primary qHTS assay for Inhibitors of ovarian cancer metastasis using an organotypic tumor microenvironment (TME) model.; also: nearly all actives have a fitted effect of over 65% in size;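 as to Potency: count of GFP cancer cells still attached after washing and fixation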;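 as to activity change, negative = inhibition: plate controls were DMSO wells for no effect and tomatine positive control wells for full effect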; conditions: SKOV3ip1-GFP adhesion/invasion on 3D omental model, fluorescence; activity change, negative = inhibition: at 45.8 µM (top of the series); series mostly up to 45.8 µM
Method in brief: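 A 3D layer of primary human omental fibroblasts, mesothelial cells, fibronectin and collagen I, grown 48 hr, received SKOV3ip1-GFP cells in serum-free medium plus compounds at 0.36-46 umol/L. After 2 hr RT and 16 hr 37 C, fixed adherent GFP cells were counted; normalized to DMSO and tomatine.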
Potency is read from the fitted curve at half-maximal effect; tags tell the direction and shape of the fitted curve.

Question: With `COc1ccccc1-c1cc2nc(C)c(CCC(=O)NCCc3ccc(SC)cc3)c(C)n2n1` as the compound, how does the Potency read?
Answer: inactive

Question: With `Cn1nc(C(=O)NCc2ccc(F)cc2)c2c1-c1ccccc1SC2` as the compound, how does the Potency read?
Answer: inconclusive [inhibitor, single point]

Question: With `N=c1n(CCN2CCCCC2)c2ccccc2n1CC(O)COc1ccccc1` (stereo unspecified) as the compound, how does the Potency read?
Answer: inconclusive [inhibitor, full curve]

Question: With `CCOc1ccc(N(CC(=O)Nc2ccc3c(c2)OCO3)S(=O)(=O)c2ccccc2)cc1` as the compound, how does the Potency read?
Answer: inconclusive [inhibitor, single point]

Question: Which Potency does the source give for `Cc1nc2cc(-c3ccccc3)nn2c(C)c1CCC(=O)NCc1cccc(Cl)c1` here?
Answer: inactive

Question: For `CCOC(=O)N1CCN(Cc2nc3cc(NC(=O)c4ccccc4OC)ccc3n2C(C)C)CC1`, which Potency is on record?
Answer: inconclusive [inhibitor, single point]

Question: Which Potency does the source give for `COc1ccc(CNC(=O)c2nc(S(=O)(=O)Cc3ccccc3)ncc2Cl)cc1` here?
Answer: active: 3.55 µM

Question: Which Potency does the source give for `COc1ccc(CNC(=O)CCc2c(C)c3cc4c(C)coc4cc3oc2=O)cc1` here?
Answer: inactive

Question: Which Potency does the source give for `COc1ccc(Oc2nc3c(C)cccn3c(=O)c2/C=C(\C#N)c2nc3ccccc3[nH]2)cc1` here?
Answer: inactive

Question: With `COc1ccc(C(=O)Nc2ccccc2-c2nc3ccccc3s2)c(OC)c1` as the compound, how does the Potency read?
Answer: inconclusive [inhibitor, single point]

Question: Which Potency does the source give for `COc1ccc(Nc2cc(C(=O)NCCCN(C)Cc3ccccc3)c3ccccc3n2)cc1` here?
Answer: inconclusive [inhibitor, single point]

Question: Which Potency does the source give for `CC(C)OCCCNC(=O)CSc1c2c(nc3ccc(Cl)cc13)CCCC2` here?
Answer: inconclusive [inhibitor, single point]

Question: Which Potency does the source give for `Cc1cccn2c(=O)cc(COc3cccc(NC(=O)COc4ccccc4)c3)nc12` here?
Answer: inconclusive [inhibitor, single point]

Question: With `O=C(c1ccc2c(c1)N(Cc1cccc(Cl)c1)C(=O)c1ccccc1S2)N1CCOCC1` as the compound, how does the Potency read?
Answer: inconclusive [inhibitor, partial curve, poor fit]

Question: Which Potency does the source give for `CN1CCN(C(CNC(=O)C(=O)Nc2cccc(Cl)c2)c2ccc3c(c2)OCO3)CC1` (stereo unspecified) here?
Answer: inconclusive [inhibitor, single point]

Question: For `CCSc1ncc(Cl)c(C(=O)Nc2sc3c(c2C(=O)NC)CCCC3)n1`, which Potency is on record?
Answer: inactive

Question: With `COc1ccc(NC(=O)C(NC(=O)/C=C\c2ccc3c(c2)OCO3)c2ccccc2)cc1` (stereo unspecified) as the compound, how does the Potency read?
Answer: inconclusive [inhibitor, single point]

Question: Which Potency does the source give for `O=C(CSc1c2c(nc3cc(Cl)ccc13)CCCC2)NCc1ccccc1Cl` here?
Answer: inconclusive [inhibitor, single point]

Question: With `CCCCCn1c(=N)n(CC(O)COc2cccc(C)c2)c2ccccc21` (stereo unspecified) as the compound, how does the Potency read?
Answer: inconclusive [inhibitor, single point]

Question: With `COc1ccc(NC(=O)Cc2csc(COc3cccc(C)c3)n2)c(OC)c1` as the compound, how does the Potency read?
Answer: inactive

Question: Which Potency does the source give for `CCCN(CCC)CC(O)Cn1cc(/C=C/C(=O)c2ccc(OCC)cc2)c2ccccc21` (stereo unspecified) here?
Answer: inactive

Question: With `Cc1cccc(OCC(=O)Nc2ccc3nc(Nc4cccc(Cl)c4)cc(C)c3c2)c1` as the compound, how does the activity change, negative = inhibition read?
Answer: inconclusive: -34.3% [inhibitor]

Question: Which Potency does the source give for `Cc1ccccc1NC(=O)CSc1nc2ccc(NC(=O)COc3ccccc3F)cc2s1` here?
Answer: inconclusive [inhibitor, single point]

Question: Which Potency does the source give for `Cc1ccc(S(=O)(=O)Nc2cc(Cl)c3oc4c(c3c2)C(=O)CC(C)(C)C4)cc1` here?
Answer: inconclusive [inhibitor, single point]

Question: For `Cc1ccc(NC(=O)C2CCCN(c3nnc(C)c4c(C)n(-c5ccccc5)nc34)C2)cc1Cl` (stereo unspecified), which Potency is on record?
Answer: inconclusive [inhibitor, partial curve, poor fit]

Question: Which Potency does the source give for `COc1ccc(Cn2c(C(=O)O)c(CNCCc3ccccc3Cl)c3ccc(C)cc32)cc1` here?
Answer: inconclusive [inhibitor, single point]

Question: For `CCN(c1ccc(C)cc1C)S(=O)(=O)c1nnc(NC(=O)CC(C)C)s1`, which Potency is on record?
Answer: inconclusive [inhibitor, single point]

Question: Which Potency does the source give for `CCC1CCCCN1CCCNC(=O)c1ccc2c(c1)sc1nc(-c3ccc(F)cc3)cn12` (stereo unspecified) here?
Answer: inconclusive [inhibitor, single point]

Question: Which Potency does the source give for `CCOC(=O)c1[nH]c2ccccc2c1NC(=O)c1ccccc1OC` here?
Answer: inconclusive [inhibitor, single point]

Question: With `COc1ccc(C)cc1S(=O)(=O)Nc1cccc(-c2ccc(N3CCC(C)CC3)nn2)c1` as the compound, how does the Potency read?
Answer: inactive

Question: For `O=C(Nc1cccc(Cl)c1Cl)c1cc2nc(-c3ccc4c(c3)OCO4)cc(C(F)(F)F)n2n1`, which Potency is on record?
Answer: inactive

Question: Which Potency does the source give for `Cc1ccc(NC(=O)c2nc(S(=O)(=O)Cc3cccc(C)c3)ncc2Cl)cc1` here?
Answer: active: 3.16 µM

Question: Which Potency does the source give for `O=C(c1ccccc1Cl)N1CCCC(c2nc3c(nnn3Cc3ccc(F)cc3F)c(=O)[nH]2)C1` (stereo unspecified) here?
Answer: inconclusive [inhibitor, single point]

Question: Which Potency does the source give for `CCOC(=O)c1ccc(NC(=O)C2=C(C)C(=O)OC23CCCCCC3)cc1` here?
Answer: inconclusive [inhibitor, single point]

Question: For `COc1ccc(C(=O)NCc2ccc3c(c2)CCN3C(C)=O)cc1OC`, which Potency is on record?
Answer: inconclusive [inhibitor, full curve, poor fit]

Question: With `CCOc1ccccc1-c1noc(CSc2nnc(-c3ccncc3)n2-c2ccc(F)cc2)n1` as the compound, how does the Potency read?
Answer: inconclusive [inhibitor, full curve, poor fit]

Question: With `COc1cc2nc(N3CCCN(C)CC3)nc(NC3CCN(Cc4ccccc4)CC3)c2cc1OC` as the compound, how does the Potency read?
Answer: inconclusive [inhibitor, single point]

Question: Which Potency does the source give for `CCn1c(CN2CCCCC2)nc2cc(NC(=O)COc3cc(C)ccc3C(C)C)ccc21` here?
Answer: inconclusive [inhibitor, single point]

Question: Which Potency does the source give for `COC(=O)CSCc1nc(-c2ccc(C(=O)OC)cc2)oc1C` here?
Answer: inactive

Question: With `CCN1CCN(c2cc(C)c3cc(NC(=O)c4cc(Br)ccc4Cl)ccc3n2)CC1` as the compound, how does the Potency read?
Answer: inconclusive [inhibitor, single point]

Question: Which Potency does the source give for `Cc1ccc(NC(=O)CSc2ncc3c(n2)-c2ccccc2N(C)S3(=O)=O)c(Cl)c1` here?
Answer: inactive
